From publication PMC6919601, “Identification of Plasmodium dipeptidyl aminopeptidase allosteric inhibitors by high throughput screening” (PLoS ONE, 2019)
Among all 110,000 compounds or so, about 230 (0.21%) showed an effect of 50% or more. The list shows a part of the results.

These compounds were tested against DPAP1 (Plasmodium falciparum, UniProt Q8IIJ9) (assay: primary screen, percent inhibition; read by cleavage of a fluorogenic dipeptide substrate; higher = more effect of the substance).
Design: species or system P. falciparum D10 trophozoite lysates; single well
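Note: 30 min substrate incubation versus DMSO and 10 µM JCP410 controls.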

Chain of DPAP1 (Q8IIJ9 whole entry, looked up): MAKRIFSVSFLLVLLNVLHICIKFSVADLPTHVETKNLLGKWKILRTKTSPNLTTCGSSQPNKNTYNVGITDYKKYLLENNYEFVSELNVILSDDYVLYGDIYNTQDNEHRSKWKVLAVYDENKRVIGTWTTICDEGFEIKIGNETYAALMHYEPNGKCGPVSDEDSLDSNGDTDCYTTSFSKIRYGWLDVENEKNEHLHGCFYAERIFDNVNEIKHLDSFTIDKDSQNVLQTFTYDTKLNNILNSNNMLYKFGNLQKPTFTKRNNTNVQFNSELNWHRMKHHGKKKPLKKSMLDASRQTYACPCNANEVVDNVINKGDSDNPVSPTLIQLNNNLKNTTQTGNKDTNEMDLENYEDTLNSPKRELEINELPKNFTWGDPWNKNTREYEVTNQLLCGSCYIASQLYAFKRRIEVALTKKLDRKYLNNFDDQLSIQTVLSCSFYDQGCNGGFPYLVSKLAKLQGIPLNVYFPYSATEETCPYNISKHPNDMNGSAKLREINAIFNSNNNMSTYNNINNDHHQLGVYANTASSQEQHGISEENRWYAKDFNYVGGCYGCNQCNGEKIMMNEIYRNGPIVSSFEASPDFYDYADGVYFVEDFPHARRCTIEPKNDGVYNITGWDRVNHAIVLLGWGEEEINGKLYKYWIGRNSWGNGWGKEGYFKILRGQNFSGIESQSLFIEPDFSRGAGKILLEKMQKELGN

Q: Which “% Inhibition @ 10 uM” value does the source give for `CCOc1ccc(-c2[nH]nc3c2C(c2ccco2)C(C#N)=C(N)O3)c(OCC)c1` (stereo not shown) here?
A: -2.56%

Q: Which “% Inhibition @ 10 uM” value does the source give for `Cn1c(=O)[nH]c2nnc(-c3cc(Br)cs3)nc2c1=O` here?
A: -2.85%

Q: Which “% Inhibition @ 10 uM” value does the source give for `CCOC(=O)c1nnn(-c2nonc2-n2cccc2)c1CN1CCOCC1` here?
A: -0.834%

Q: For `COc1ccccc1N1C(=O)CC(=O)NC1=S`, which “% Inhibition @ 10 uM” value is on record?
A: -4.01%

Q: For `CCCN1CCCn2c1nc1c2c(=O)n(C)c(=O)n1C`, which “% Inhibition @ 10 uM” value is on record?
A: 1.35%

Q: `Cc1ccc(S(=O)(=O)Nc2cncc(C(=O)NC3CCCCC3C)c2)cc1` (stereo not shown) was tested. Which “% Inhibition @ 10 uM” value did it give?
A: -5.75%

Q: With `CCn1c(=O)[nH]c2cc(C(=O)Nc3ccc(Cl)c(Cl)c3)ccc2c1=O` as the compound, how does the “% Inhibition @ 10 uM” value read?
A: -5.35%

Q: For `O=CN1CCN(C/C(Cl)=C/c2ccccc2)CC1`, which “% Inhibition @ 10 uM” value is on record?
A: -2.95%

Q: `CC(C#N)(Nc1ccc(Cl)cc1)c1cccnc1` (stereo not shown) was tested. Which “% Inhibition @ 10 uM” value did it give?
A: 6.98%

Q: Which “% Inhibition @ 10 uM” value does the source give for `CN1CCCc2c1n(Cc1ccccc1)c1ccccc1c2=O` here?
A: -0.591%

Q: `CCC12CC3CC(C1)CC(NC(=O)SC)(C3)C2` was tested. Which “% Inhibition @ 10 uM” value did it give?
A: 3.48%

Q: How did the “% Inhibition @ 10 uM” value turn out when `CC(=O)NC1(C(F)(F)F)C(=O)N(Cc2ccccc2)C(C)=C1C(=O)c1ccccc1` (stereo not shown) was run?
A: -5.2%

Q: How did the “% Inhibition @ 10 uM” value turn out when `CCN1CCC(N2CCN(C=O)CC2)CC1` was run?
A: 1.43%

Q: For `NC(=O)NC(c1ccccc1)c1cccc2ccccc12` (stereo not shown), which “% Inhibition @ 10 uM” value is on record?
A: -5.2%

Q: With `COC(=O)c1sccc1NC(=O)c1ccoc1C` as the compound, how does the “% Inhibition @ 10 uM” value read?
A: 2.92%

Q: With `COc1cc(OC)c(OC)cc1C=C1C(=O)OC2(CCCCC2)OC1=O` as the compound, how does the “% Inhibition @ 10 uM” value read?
A: -6.44%

Q: `O=C1c2ccccc2C(=O)C1(Nc1cccc(F)c1)c1ccccc1` was tested. Which “% Inhibition @ 10 uM” value did it give?
A: -3.93%

Q: Which “% Inhibition @ 10 uM” value does the source give for `O=C(Cn1ncc2c3ccccc3nc-2c1O)Nc1ccccn1` here?
A: -0.723%

Q: With `CCOc1ccc(/C(O)=C/C2=NCCNC2=O)cc1` as the compound, how does the “% Inhibition @ 10 uM” value read?
A: 1.97%

Q: With `CCN(CC)CCCOc1ccc(C(C)(C)C)cc1` as the compound, how does the “% Inhibition @ 10 uM” value read?
A: 3%

Q: For `COc1cc(Cl)ccc1N1C(=O)c2ccccc2C1=O`, which “% Inhibition @ 10 uM” value is on record?
A: -5.98%

Q: Which “% Inhibition @ 10 uM” value does the source give for `Cc1c(CC(=O)NCc2ccc3c(c2)OCO3)c(=O)oc2cc(O)ccc12` here?
A: 2.54%

Q: Which “% Inhibition @ 10 uM” value does the source give for `COc1cccc(S(=O)(=O)NCC(=O)Nc2ccc3sc(C)nc3c2)c1` here?
A: -5.14%

Q: `Cc1[nH]nc2c1C(c1cccnc1)N(C)C2=O` (stereo not shown) was tested. Which “% Inhibition @ 10 uM” value did it give?
A: 0.635%

Q: With `Cc1ccc(-c2cc(-c3ccccc3)nc(SCC(N)=O)c2C#N)cc1` as the compound, how does the “% Inhibition @ 10 uM” value read?
A: 7.1%

Q: Which “% Inhibition @ 10 uM” value does the source give for `Cc1nc2c(-c3ccccc3)c(C)nn2c(C)c1CC(=O)NC(C)C12CC3CC(CC(C3)C1)C2` (stereo not shown) here?
A: -2.25%

Q: For `CN1C(=O)C(O)=C(C(=O)c2ccc(Cl)cc2)C1c1ccc(Cl)cc1` (stereo not shown), which “% Inhibition @ 10 uM” value is on record?
A: -3.09%

Q: For `c1ccc(Cn2c(NCc3ccccn3)nc3ccccc32)cc1`, which “% Inhibition @ 10 uM” value is on record?
A: -7.35%

Q: For `O=S(=O)(NCCCc1ccccc1)c1ccc2nc(O)ccc2c1`, which “% Inhibition @ 10 uM” value is on record?
A: 1.92%

Q: For `O=C(CSc1nnc(-c2ccco2)o1)c1ccc2c(c1)OCCO2`, which “% Inhibition @ 10 uM” value is on record?
A: -6.42%

Q: `CCN1CCN(C(=O)CN2N=C(c3ccccc3)CCC2=O)CC1` was tested. Which “% Inhibition @ 10 uM” value did it give?
A: 0.514%

Q: `CN(Cc1ccccc1)S(=O)(=O)c1nnc(NC(=O)COc2ccccc2F)s1` was tested. Which “% Inhibition @ 10 uM” value did it give?
A: -7.32%

Q: How did the “% Inhibition @ 10 uM” value turn out when `CC1=CN2C(=N)/C(=C/c3cc(C)n(Cc4ccccc4)c3C)C(=O)N=C2S1` was run?
A: -2.98%

Q: Which “% Inhibition @ 10 uM” value does the source give for `COC(=O)c1nnn(-c2nonc2N)c1C(C)C` here?
A: 1.62%

Q: Which “% Inhibition @ 10 uM” value does the source give for `O=S1(=O)c2ccccc2C2C1C1c3ccccc3S(=O)(=O)C21` (stereo not shown) here?
A: -4.56%

Q: Which “% Inhibition @ 10 uM” value does the source give for `CCNCCOC(c1ccccc1)c1ccccc1` here?
A: -8.9%

Q: For `Cc1cc(N2CCN(c3ccccc3)CC2)nc(N)n1`, which “% Inhibition @ 10 uM” value is on record?
A: -3.04%

Q: For `CC1CCC(NC(=O)c2cc3oc4ccccc4c3n2C)CC1` (stereo not shown), which “% Inhibition @ 10 uM” value is on record?
A: 3%

Q: How did the “% Inhibition @ 10 uM” value turn out when `O=C(Nc1ccc(-c2nc3cc(NC(=O)c4cccs4)ccc3o2)cc1)c1cccs1` was run?
A: 4.04%

Q: Which “% Inhibition @ 10 uM” value does the source give for `Cc1c(CCN)c2ccccc2n1Cc1ccccc1` here?
A: -0.0372%

Q: For `CN1CCC(N(C)Cc2ccco2)CC1`, which “% Inhibition @ 10 uM” value is on record?
A: -0.969%

Q: With `CC(C)CC(C(=O)O)N1C(=O)c2c(Cl)c(Cl)c(Cl)c(Cl)c2C1=O` (stereo not shown) as the compound, how does the “% Inhibition @ 10 uM” value read?
A: -3.63%

Q: Which “% Inhibition @ 10 uM” value does the source give for `Cc1ccccc1NCc1[nH]cnc1C` here?
A: -2.02%

Q: `S=c1cc(Sc2cc(=S)oc3ccccc23)c2ccccc2o1` was tested. Which “% Inhibition @ 10 uM” value did it give?
A: 8.23%

Q: With `O=C(O)c1[nH]c2ccccc2c1CC(=O)N1CCN(Cc2ccc3c(c2)OCO3)CC1` as the compound, how does the “% Inhibition @ 10 uM” value read?
A: 4.14%

Q: For `CC(C)OCCCNC(=O)C1CCCN(C(=O)c2cnn(-c3ccc(F)cc3)c2-n2cccc2)C1` (stereo not shown), which “% Inhibition @ 10 uM” value is on record?
A: -3.01%

Q: `Cc1ccc(S(=O)(=O)c2cc3c(=O)n4cccc(C)c4nc3n(Cc3ccccc3)c2=N)cc1` was tested. Which “% Inhibition @ 10 uM” value did it give?
A: -1.52%

Q: `OCC1CCCCN1Cc1ccccc1F` (stereo not shown) was tested. Which “% Inhibition @ 10 uM” value did it give?
A: 1.9%

Q: `OCC(O)Cn1c2ccccc2c2ccccc21` (stereo not shown) was tested. Which “% Inhibition @ 10 uM” value did it give?
A: 1.44%

Q: For `COCc1cc(C)nc2sc3c(c12)NC(C)N(Cc1ccco1)C3=O` (stereo not shown), which “% Inhibition @ 10 uM” value is on record?
A: 7.17%

Q: Which “% Inhibition @ 10 uM” value does the source give for `CCN(C(=O)CN1CCOCC1)C1(C)C(=O)c2ccccc2C1=O` here?
A: 4.64%

Q: With `COc1ccc2c(CNCc3cccnc3)c(C(=O)O)n(Cc3ccc(F)cc3Cl)c2c1` as the compound, how does the “% Inhibition @ 10 uM” value read?
A: 9.37%

Q: Which “% Inhibition @ 10 uM” value does the source give for `COc1ccccc1/C=C1\SC(c2ccccc2)=NC1=O` here?
A: 15.7%

Q: Which “% Inhibition @ 10 uM” value does the source give for `CC(C)N(Cc1c(O)ccc2c(=O)c(-c3ccccc3)coc12)C(C)C` here?
A: 17.4%

Q: For `CC(=O)N1CN(C2CCCCC2)Cc2c1sc1c2CCCC1`, which “% Inhibition @ 10 uM” value is on record?
A: -0.123%

Q: Which “% Inhibition @ 10 uM” value does the source give for `COc1ccc(Br)cc1CN1CC2(C)CC1CC(C)(C)C2` (stereo not shown) here?
A: -1.5%

Q: For `NC(=O)C1CCN(C(=O)/C(=C/c2ccccc2)NC(=O)c2ccccc2)CC1`, which “% Inhibition @ 10 uM” value is on record?
A: 2.46%

Q: For `CCCOc1ccc(C2C3=C(O)CC(C)(C)CC3=Nc3ccccc3N2C(C)=O)cc1OC` (stereo not shown), which “% Inhibition @ 10 uM” value is on record?
A: -6.62%

Q: With `CCOc1ccc(NC(=O)c2cc(OC)cc(OC)c2)cc1` as the compound, how does the “% Inhibition @ 10 uM” value read?
A: 2.82%

Q: For `CCc1nn2c(=O)cc(CSc3nnc(N)s3)nc2s1`, which “% Inhibition @ 10 uM” value is on record?
A: 1.15%

Q: With `COCCCNC(=O)CCN1C(=O)c2ccccc2C1=O` as the compound, how does the “% Inhibition @ 10 uM” value read?
A: -7.36%

Q: `Nc1nnc(SCC(=O)Nc2nc(-c3ccccc3)cs2)s1` was tested. Which “% Inhibition @ 10 uM” value did it give?
A: 2.03%

Q: With `Cc1cccc(CN2CCN(Cc3ccccc3F)CC2)c1` as the compound, how does the “% Inhibition @ 10 uM” value read?
A: -2.87%

Q: For `Cc1ccc(OCCn2cc(C(=O)O)c3ccccc32)cc1C`, which “% Inhibition @ 10 uM” value is on record?
A: -1.33%

Q: Which “% Inhibition @ 10 uM” value does the source give for `O=C(NCCN1CCCC1)c1ccc(Cl)cc1Cl` here?
A: -0.992%

Q: For `COc1cc2c(cc1OC)C(C(=O)NCCC1=CCCCC1)C(c1cccnc1)N(C)C2=O` (stereo not shown), which “% Inhibition @ 10 uM” value is on record?
A: -1.41%

Q: For `N#Cc1ccc(NC(=O)CCc2ccccc2)cc1`, which “% Inhibition @ 10 uM” value is on record?
A: 3.29%
